Data on 15 compounds can be found in the supplement of paper PMC4604168 (melanoma cell lines).

This is one part of the list. Many values rest on one well or one pass, so single values are uncertain.
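Note: cells treated in 1,536-well plates, then fixed and DAPI-stained, with nuclei counted from automated high-throughput microscope images.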

This experiment deals with A375. In words: cell count relative to DMSO control; melanoma cells; higher = more viable cells. To be noted: library dose: standard library concentration; 72 h.
Turning to `OCCn1cc(-c2cnc3nnn(Cc4ccc5ncccc5c4)c3n2)cn1` + C[C@@H]1CCN(C(=O)CC#N)C[C@@H]1N(C)c1ncnc2[nH]ccc12 [CP690550] (first compound 5 µM, partner dose 5 µM), the cell count is 97.4%. For `Cc1nc(Nc2ncc(C(=O)Nc3c(C)cccc3Cl)s2)cc(N2CCN(CCO)CC2)n1` [dasatanib] + NCC(=O)Nc1ccc(-n2nc(C(F)(F)F)cc2-c2ccc3c(ccc4ccccc43)c2)cc1 [OSU03012] (first compound 0.02 µM, partner dose 5 µM), the cell count came out at 54.6%. The compound `C[C@]1(c2nc3c(C(N)=O)cccc3[nH]2)CCCN1` [Veliparib] + CC(C)(C)c1cnc(CSc2cnc(NC(=O)C3CCNCC3)s2)o1 [SNS-032] (first compound 7 µM, partner dose 0.05 µM) came in with a cell count of 81.6%. As to `Cc1nc(Nc2ncc(C(=O)Nc3c(C)cccc3Cl)s2)cc(N2CCN(CCO)CC2)n1` [dasatanib] + Cc1ccc(NC(=O)c2cccc(N(C)C)c2)cc1NC(=O)c1ccc(O)cc1 [ZM336372] (first compound 0.02 µM, partner dose 10 µM), the cell count was determined as 88.7%.

Take `C[C@]1(c2nc3c(C(N)=O)cccc3[nH]2)CCCN1` [Veliparib] + Cn1cncc1[C@@](N)(c1ccc(Cl)cc1)c1ccc2c(c1)c(-c1cccc(Cl)c1)cc(=O)n2C [tipifarnib] (first compound 7 µM, partner dose 0.05 µM): the cell count came to 97%. In turn, `OCCn1cc(-c2cnc3nnn(Cc4ccc5ncccc5c4)c3n2)cn1` + CCN(CC)CCCCNc1ncc2cc(-c3cc(OC)cc(OC)c3)c(NC(=O)NC(C)(C)C)nc2n1 [PD173074] (first compound 5 µM, partner dose 0.5 µM) registered a cell count of 94.6%. `Cc1nc(Nc2ncc(C(=O)Nc3c(C)cccc3Cl)s2)cc(N2CCN(CCO)CC2)n1` [dasatanib] + COc1cc2c(Oc3ccc4[nH]c(C)cc4c3F)ncnc2cc1OCCCN1CCCC1 [cediranib] (first compound 0.02 µM, partner dose 2 µM): the cell count came to 51.2%. In the case of `C[C@]1(c2nc3c(C(N)=O)cccc3[nH]2)CCCN1` [Veliparib] + CC1(C)NC(=O)N(c2ccc([N+](=O)[O-])c(C(F)(F)F)c2)C1=O [nilutamide] (first compound 7 µM, partner dose 5 µM) it was 87.7%; in that of `OCCn1cc(-c2cnc3nnn(Cc4ccc5ncccc5c4)c3n2)cn1` + COc1cc2c(Oc3ccc4[nH]c(C)cc4c3F)ncnc2cc1OCCCN1CCCC1 [cediranib] (first compound 5 µM, partner dose 2 µM), 105%; in that of `Cc1nc(Nc2ncc(C(=O)Nc3c(C)cccc3Cl)s2)cc(N2CCN(CCO)CC2)n1` [dasatanib] + Cc1cc(N2CCOCC2)cc2[nH]c(-c3c(NC[C@@H](O)c4cccc(Cl)c4)cc[nH]c3=O)nc12 [BMS536924] (first compound 0.02 µM, partner dose 1 µM), 77.3%. The compound `C[C@]1(c2nc3c(C(N)=O)cccc3[nH]2)CCCN1` [Veliparib] + C=CCn1c(=O)c2cnc(Nc3ccc(N4CCN(C)CC4)cc3)nc2n1-c1cccc(C(C)(C)O)n1 [MK1775] (first compound 7 µM, partner dose 0.1 µM) showed a cell count of 51.8%. `NC(=O)Nc1cc(-c2cccc(F)c2)sc1C(=O)N[C@H]1CCCNC1` + N#Cc1c(O)c2c(-c3ccc(-c4ccccc4O)cc3)csc2[nH]c1=O [A769662] (first compound 0.1 µM, partner dose 10 µM) came in with a cell count of 48.6%. Consider `Cc1nc(Nc2ncc(C(=O)Nc3c(C)cccc3Cl)s2)cc(N2CCN(CCO)CC2)n1` [dasatanib] + Cn1cc(/C=C2\C(=O)Nc3cccnc32)c2ccccc21 [GW441756] (first compound 0.02 µM, partner dose 2 µM), for which the cell count is 109%. In the case of `C[C@]1(c2nc3c(C(N)=O)cccc3[nH]2)CCCN1` [Veliparib] + O=C(Nc1cccc(Cl)c1)Nc1ncc(CCNc2ncnc3ccsc23)s1 [SNS314] (first compound 7 µM, partner dose 0.004 µM) it was 90.5%; in that of `Cc1nc(Nc2ncc(C(=O)Nc3c(C)cccc3Cl)s2)cc(N2CCN(CCO)CC2)n1` [dasatanib] + Cn1c(Nc2ccc(C(F)(F)F)cc2)nc2cc(Oc3ccnc(-c4ncc(C(F)(F)F)[nH]4)c3)ccc21 [CHIR265] (first compound 0.02 µM, partner dose 0.4 µM), 51.9%.
